# Measured values from PubChem BioAssay AID1347073 (National Center for Advancing Translational Sciences (NCATS), 2019).
# Out of some 45,000 compounds screened, about 200 (0.44%) were called active. Roughly 7% stayed inconclusive and do not appear here. Calls follow the shape of the dose curve; as a rule, active = well fitted activation curve with a large enough effect; inconclusive = small, poorly fitted or top-dose-only effect; inactive = no such curve, though single readings can be large or run the other way. This is one part of the list.
# Assay: qHTS of TDP-43 Inhibitors: NCGC Sytravon Library Screen; also: 0% is about no effect; nearly all actives have a fitted effect of over 55% in size
# Details: yeast TDP-43 toxicity rescue, BacTiter-Glo growth, 24 h; series mostly up to 46.1 µM; growth rescue (activation): at the top concentration
# In short: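 TDP-43-expressing yeast, pregrown in raffinose, seeded at OD600 0.02 in galactose medium with compound for 24 hr at 30 deg C. Growth read by BacTiter-Glo luminescence, so rescue of toxicity appears as activation.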
row,SMILES,growth rescue (activation)
1,Cc1ccc(C(=O)OCc2cc(=O)n3ccsc3n2)s1,inactive: 18.1%
2,Cc1ccc(NC(=O)C2CC(=O)N(Cc3ccccc3)C2)cc1S(=O)(=O)N1CCCCCC1 (centres undefined),inactive: 15.3%
3,COc1cc(/C=C/C(=O)O)cc(S(=O)(=O)Nc2cccc(SC)c2)c1OC,inactive: -3.06%
4,C/C(=N\NC(=O)c1ccc(Cl)cc1)c1ccccn1,inactive: -22.5%
5,CCCSc1ncc(Cl)c(C(=O)Nc2c(C(=O)Nc3ccc(OC)cc3)oc3ccccc23)n1,inactive: 2.74%
6,Cc1ccccc1NC(=O)COC(=O)[C@@H]1CCCN1C(=O)c1cccs1,inactive: 5.71%
7,COc1cc(CNc2nc(C)c([N+](=O)[O-])c(C)c2C#N)cc(OC)c1OC,inactive: 2.46%
8,CC1C(=O)NN=C1C(=O)N/N=C\C(Br)=C\c1ccccc1 (centres undefined),inactive: 8.91%
9,CCc1nc2c(OC)cccn2c1N(C)C(=O)c1ccccc1F,inactive: 8.39%
10,COc1ccc(NC(=O)COC(=O)CN2C(=O)c3ccccc3C2=O)cc1,inactive: -2.58%
11,Cc1ccc(N(C(=O)c2csnn2)C(C(=O)NC(C)(C)C)c2cccnc2)cc1 (centres undefined),inactive: 1.8%
12,COc1cc2c(cc1OC)/C(=C/C(=O)c1ccc(OC)c([N+](=O)[O-])c1)NCC2,inactive: -16.3%
13,CCCCCC1CC(/C(C)=N/NC(N)=O)OC1=O (centres undefined),inactive: 16.1%
14,Cc1cc(C)n2c(SCC(C)C)nnc2n1,inactive: 19%
15,N=c1c(S(=O)(=O)c2ccccc2)cc2c(=O)n3ccccc3nc2n1C1CCCC1,inactive: -8.48%
16,COc1ccc(CCNS(=O)(=O)c2ccc(-n3cnnn3)cc2)cc1OC,inactive: -4.67%
17,Cc1ccc(C(=O)/C=C/N(C)C)o1,inactive: 26.3%
18,CCOc1ccc(CN(CCO)CCO)cc1C(=O)OC,inactive: 13.4%
19,Cc1cccc(NNC(=S)Nc2c(C)cccc2C)c1,inactive: -8.11%
20,CC1CCc2sc(NC(=O)C3CC(Cl)=CCC3C(=O)O)c(C#N)c2C1 (centres undefined),inactive: 9.67%
21,Cc1cc(NC(=O)c2ccc([N+](=O)[O-])cc2)n(CCC#N)n1,inactive: 8.82%
22,C=CCn1c(=O)c2ccccc2n2c(SC(C)C(N)=O)nnc12 (centres undefined),inactive: 7.37%
23,O=C(Nc1ccc(F)c(Cl)c1)N1CCC2(CC1)Oc1ccccc1C(=O)N2Cc1ccccc1F,inactive: 2.31%
24,COc1ccc(S(=O)(=O)N2CCCN(C)CC2)cc1,inactive: 1.25%
25,CCN(Cc1ccccc1)C(=O)CN1C(=O)c2ccccc2C1=O,inactive: -10.4%
26,O=C(O)CCCn1cc(NC(=O)COc2ccccc2[N+](=O)[O-])cn1,inactive: -19.2%
27,CC(C)(Oc1ccc(Cl)cc1)C(=O)NCCN1C(=O)S/C(=C/c2cccnc2)C1=O,inactive: 5.67%

row,SMILES,growth rescue (activation)
1,CC(C)c1ccccc1NC(=O)COc1ccc(C(=O)NCCc2ccccc2)cc1,inactive: 25%
2,O=C(CCCOc1ccc(Cl)cc1Cl)Nc1ccccn1,inactive: 13.7%
3,O=C(Nc1ccc(Br)cc1)Nc1ccccc1F,inactive: 23.6%
4,Cc1cc(C)cc(N2C(=O)CC(Cn3nc(C)cc3C)C2=O)c1 (centres undefined),inactive: 4.22%
5,CC(C)c1ccc(NC(=O)CN2C(=O)NC3(CCCC3)C2=O)cc1,inactive: 5.38%
6,Cc1ccc(S(=O)(=O)Nc2ccc(N3CCN(C)CC3)nc2)cc1,inactive: -10.1%
7,Cc1[nH]c2ccccc2c1C(Nc1nccs1)c1ccncc1 (centres undefined),inactive: 23.1%
8,O=C(COC(=O)c1ccco1)Nc1nc2c(F)c(F)c(F)cc2s1,inactive: -20.3%
9,O=C(Nc1nnc([C@H]2C[C@H](O)[C@@H](CO)O2)s1)Nc1cccc2c1CCCC2,inactive: 4.85%
10,Cc1ccc(-n2nc3ccc(NC(=O)COc4ccccc4)cc3n2)cc1Cl,inactive: 12.6%
11,CC(=O)Nc1ccc(S(=O)(=O)Nc2nccc(/C=C/c3ccc(Cl)cc3)n2)cc1,inactive: 11.5%
12,COc1ccccc1CCC(=O)NCCCn1ccc2ccccc21,inactive: 35.2%
13,COc1ccc(CN(C(=O)CCC(=O)Nc2cc(C)on2)C(C(=O)NC(C)(C)C)c2cccc(OC)c2OC)cc1 (centres undefined),inactive: 10.8%
14,O=C(O)c1ccccc1C(=O)N1CCN(S(=O)(=O)c2cccc(C(F)(F)F)c2)CC1,inactive: 16%
15,NC(=O)Cn1cnc(-c2ccccc2)c1,inactive: 10.6%
16,Cc1cccc(C(=O)N2CC(=O)Nc3ccc(F)cc3C2c2ccc(F)cc2)c1 (centres undefined),inactive: 7.6%
17,CCOC(=O)c1c(NC(=O)COc2ccc(C)cc2C(C)(C)C)sc2c1CCC(C)C2 (centres undefined),inactive: 7.2%
18,CCC[C@@H](NS(=O)(=O)c1ccc(C)cc1)C(=O)Oc1ccc2c3c(c(=O)oc2c1)CCC3,inactive: 15.2%
19,COc1ccc(Cl)cc1-c1nc(SCC(=O)N(C)C2CCS(=O)(=O)C2)n[nH]1 (centres undefined),inactive: 21.6%
20,COc1cccc2cc(C(C)N(CCCN3CCOCC3)C(=S)Nc3cccc(C)c3)oc12 (centres undefined),inactive: -19.9%
21,Cn1c(N)c(N2CCCCC2)c(=O)n(CC(=O)Nc2cccc(C#N)c2)c1=O,inactive: 1.81%
22,Cc1cc(NC(=O)C2Oc3ccccc3OC2C)no1 (centres undefined),inactive: -5.03%
23,Cc1ccc(-n2c(=O)c3sccc3n(CC(=O)NC3CCCC3)c2=O)cc1,inactive: -14.4%
24,Cn1nc(C(C)(C)C)cc1C(=O)N1CCCCC1c1cc(C(=O)Nc2ccc3c(c2)OCO3)no1 (centres undefined),inactive: 15.1%
25,O=C(CSc1nncn1-c1cccnc1)N(c1ccccc1)c1ccccc1,inactive: -7.61%
26,Cc1cc(NCc2ccco2)n2c(nc3ccccc32)c1C#N,inactive: -6.61%
27,CCCCN1C(=O)c2ccc(C(=O)OCC(=O)NCCc3ccc(S(N)(=O)=O)cc3)cc2C1=O,inactive: 13.7%
